Assay results reported in article PMC4336329 (PLoS ONE, 2015).
About 2,200 (0.71%) of roughly 310,000 compounds showed an effect of 50% or more. The effect is printed as a negative number. The list shows a part of the results.

Target: human ether-à-go-go-related gene (hERG) potassium channel (human, UniProt Q12809)
Assay: primary screen, population patch clamp on CHO cells stably expressing hERG

human ether-à-go-go-related gene (hERG) potassium channel, sequence (Q12809 whole entry, looked up): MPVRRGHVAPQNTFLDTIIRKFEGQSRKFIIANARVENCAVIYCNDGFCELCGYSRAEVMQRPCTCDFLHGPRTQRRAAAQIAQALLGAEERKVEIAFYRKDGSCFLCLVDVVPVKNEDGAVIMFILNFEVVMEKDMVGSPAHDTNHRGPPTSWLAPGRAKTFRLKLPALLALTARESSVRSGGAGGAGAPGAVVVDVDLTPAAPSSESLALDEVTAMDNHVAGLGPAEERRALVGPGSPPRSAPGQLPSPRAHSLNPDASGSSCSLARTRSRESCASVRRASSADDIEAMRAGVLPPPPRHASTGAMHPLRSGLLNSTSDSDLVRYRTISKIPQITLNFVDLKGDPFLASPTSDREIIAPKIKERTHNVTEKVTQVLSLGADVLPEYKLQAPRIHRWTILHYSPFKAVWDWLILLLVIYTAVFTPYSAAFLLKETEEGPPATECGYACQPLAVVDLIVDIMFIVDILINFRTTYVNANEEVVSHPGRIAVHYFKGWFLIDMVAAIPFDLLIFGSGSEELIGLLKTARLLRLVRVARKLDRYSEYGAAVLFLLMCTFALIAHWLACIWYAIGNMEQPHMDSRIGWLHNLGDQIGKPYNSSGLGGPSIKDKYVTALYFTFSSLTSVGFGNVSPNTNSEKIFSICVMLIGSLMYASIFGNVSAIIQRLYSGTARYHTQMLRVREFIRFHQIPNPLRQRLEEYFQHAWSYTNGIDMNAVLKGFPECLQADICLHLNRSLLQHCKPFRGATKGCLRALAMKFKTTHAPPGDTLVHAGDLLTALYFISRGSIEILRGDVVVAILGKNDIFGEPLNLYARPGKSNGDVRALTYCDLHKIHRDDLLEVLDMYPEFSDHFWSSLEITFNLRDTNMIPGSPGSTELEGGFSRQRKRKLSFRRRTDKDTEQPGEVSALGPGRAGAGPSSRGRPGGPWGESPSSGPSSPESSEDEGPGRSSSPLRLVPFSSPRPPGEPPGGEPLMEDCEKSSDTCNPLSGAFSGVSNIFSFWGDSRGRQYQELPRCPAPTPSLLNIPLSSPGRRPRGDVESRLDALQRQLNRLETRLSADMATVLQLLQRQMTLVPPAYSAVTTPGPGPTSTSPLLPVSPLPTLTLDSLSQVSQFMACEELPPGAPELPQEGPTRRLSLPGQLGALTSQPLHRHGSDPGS

SMILES	hERG current change (%, negative = inhibition) at 1uM [%]
CCN(CC)S(=O)(=O)c1ccc(N2CCCC2)c(NC(=O)CC(C)(C)C)c1	7.53
O=C(O)CCC(=O)CCC(=O)c1ccc(Cl)cc1	11.7
COCc1ccc(C(=O)NC2CC(C)(C)Cc3c2cnn3-c2ccc(C)cc2)o1 (stereo not drawn)	-1.08
COC(=O)C1CN(C(=O)COc2ccc(C)c(C)c2)c2ccccc2O1 (stereo not drawn)	9.99
CCN(CC)C(=O)Cn1cc(S(=O)(=O)CC(=O)Nc2cc(C)on2)c2ccccc21	-0.677
CN1/C(=C/C(=O)c2cccs2)Sc2ccccc21	15.5
CC(C)C(=O)Nc1nnc(SCC(=O)NC2CC2)s1	11.1
O=S(=O)(c1cccs1)N1CN(Cc2ccccc2)c2nc3ccccc3nc21	-2.11
CCc1nc2ccc(C(=O)Nc3ccc(NC(C)=O)cc3)cc2nc1CC	13.2
S=C(Nc1cccc(Cl)c1)Nc1ccc2c(c1)OCCO2	18.2
COCCNC(=O)C1CCCN(S(=O)(=O)c2c(C)noc2/C=C/c2cccs2)C1 (stereo not drawn)	0.102
CC(=O)c1ccc(OC(=O)c2cc3ccccc3oc2=O)cc1	7.83
O=C(COC(=O)Cc1cccs1)Nc1ccccc1F	8.8
Cc1nc([N+](=O)[O-])cn1Cc1cccc2ccccc12	9.37
CCCCN(C(=O)c1ccc(Cl)c(S(=O)(=O)N2CCOCC2)c1)c1c(N)n(CCC)c(=O)[nH]c1=O	8.98
Cc1cc(Cl)ccc1NC(=O)C1CCN(S(C)(=O)=O)CC1	7.3
CCOC(=O)C1=C(C)NC2=C(C(=O)CC(C)(C)C2)C1c1cccc(C)n1 (stereo not drawn)	-1.71
CCOC(=O)c1ccccc1Cc1nc2ccccc2c(=O)[nH]1	5.37
COc1cc(NC(=O)CSCC(=O)Nc2cc(OC)cc(OC)c2)cc(OC)c1	5.8
Nc1nc(SCC(=O)Nc2ccc3c(c2)OCO3)n[nH]1	9.29
Cc1ncsc1C(=O)N1CCCC(C(=O)c2ccc3ccccc3c2)C1 (stereo not drawn)	13.3
Cc1cccc(-n2ncc(C#N)c2-n2cccc2)c1	4.1
CC1CCN(C(=O)c2cc(N3C(=O)C4C5CCC(C5)C4C3=O)ccc2Cl)CC1 (stereo not drawn)	1.42

SMILES	hERG current change (%, negative = inhibition) at 1uM [%]
CCOc1ccc(S(=O)(=O)N(CC)CC(=O)NCc2ccncc2)cc1C	11.1
CS(=O)(=O)O.Cc1cccc(/C=C2/C(=O)/C(=C/c3ccccc3C)C3CCC2N3C)c1 (stereo not drawn)	8.95
COc1ccc(C(=S)N2CCCCC2)cc1Br	15.6
CN(C)CCCNC(=S)N(Cc1cccs1)Cc1cc2cc3c(cc2[nH]c1=O)OCCO3	11.7
CCC1COCCS(=O)(=O)N1Cc1ccccc1C (stereo not drawn)	1.86
Cc1ccccc1CNC(=O)c1ccccc1NS(C)(=O)=O	10.8
COC(=O)C1=C(c2ccc(F)cc2OCc2ccccc2)C[C@@H]2CC[C@H]1N2C(=O)N1CCCCC1	3.4
COC(=O)C1=C(C)N(Cc2ccco2)C(=O)N[C@H]1c1ccccc1	6.02
CCCCNC(=O)NC1C(NC(=O)NCCCC)N(C)C(=O)N1C (stereo not drawn)	12.1
COc1ccc(CNCC(O)COc2ccc(C(C)(C)c3ccccc3)cc2)cc1.O=C(O)C(=O)O (stereo not drawn)	12.2
CSc1ccc(CN(C)C(=O)C2CCN(C(=O)Nc3ccccc3)CC2)cc1	-34.1
CCOc1ccc(C(=O)Nc2ccc(N3CCN(C(C)=O)CC3)cc2)cc1[N+](=O)[O-]	3.18
O=C(c1cc([N+](=O)[O-])ccc1N1CCOCC1)N1CCN(S(=O)(=O)c2ccc(F)cc2)CC1	5.85
Cl.c1cc(Nc2ncnc3sc4c(c23)CCC4)ccn1	7.38
COc1ccc(C/C(N)=N/OC(=O)c2ccc(Cl)cc2)cc1	13.7
Cc1cc(CNC(=O)COc2c(F)c(F)cc(F)c2F)c2ccccc2n1	3.64
CCC(=O)Nc1cccc(NC(=S)NC(=O)c2ccc(Cl)cc2Cl)c1	2.34
COc1ccccc1/C=C(/C(=O)OCC(N)=O)c1ccccc1	10.6
Cc1cc(N2CCN(C/C=C/c3ccccc3)CC2)n2ncnc2n1	-52.2
CC1CC(C)CN(S(=O)(=O)c2ccc(NC(=O)C3COc4ccccc4O3)cc2)C1 (stereo not drawn)	12.1
COc1ccc(NC(=O)CC2C(=O)NC3CCCCC3N2C(=O)c2ccc(F)cc2)cc1 (stereo not drawn)	11.5
C/C(=N\NC(=O)c1ccc(OC2CCCC2)cc1)c1ccc(O)cc1	12.9
